Assay results published in PubChem BioAssay AID1508624 (National Center for Advancing Translational Sciences (NCATS), 2021).
The whole screen tested about 48,000 compounds, of which about 120 (0.25%) were called active. Not shown: some 4% with an inconclusive outcome. The call rests on the fitted dose curve; in most records, active means well fitted activation curve with a large enough effect; inconclusive means small, poorly fitted or top-dose-only effect, or another doubt; inactive means no such curve, though single readings can be large or run the other way. This is one part of the list.

Test: Primary qHTS for Identification of Small Molecule Activators of Huntingtin-Antisense Promoter Activity; further: nearly all actives have a fitted effect of over 55% in size
Conditions: HEK293 HTT-AS promoter firefly luciferase reporter, 24 h; series mostly up to 57.5 µM; activity change, positive = activation: at the top concentration
Method in brief: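 Firefly luciferase readout (Dual-Glo, 10 min RT) after 24 h, 37 °C compound exposure (final up to 57.5 uM) of HEK293 reporter cells cultured 24 h beforehand; PTC124 at 50 uM final as control inhibitor; activity scaled vehicle 0%, zero RLU -100%.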

Activity change, positive = activation, inactive:
COc1cccc(Cn2c(=O)n(-c3cccc(Cl)c3C)c(=O)c3c4c(sc32)CN(C(C)=O)CC4)c1 -38.7%
CCOC(=O)c1c(C)oc2nc(C)nc(NCC3CCN(Cc4cccc(C)c4)CC3)c12 -16.7%
CC(COc1ccccc1)NC(C)C(O)c1ccc(O)cc1 (stereo not given) -2.99%
CCc1cnc2c(c1SCC(=O)Nc1ccc(Cl)cc1)c(=O)n(C)c(=O)n2C -19.9%
COc1ccc(-c2cc(C(F)F)n3ncc(C(=O)Nc4cc(OC)ccc4OC)c3n2)cc1 0.86% [at 11.5 µM, percent change from vehicle, -100% = no light]
CCOc1ccc(NC(=O)Cc2coc3ccc(C)cc23)cc1 3.05%
COc1ccccc1NC(=O)CSc1ccc(-c2sc(C)nc2C)nn1 -13.1%
COc1cccc(CNCCSc2nnnn2C)c1OCc1ccc(Cl)cc1Cl -30.3%
CCC(Nc1ccc(-c2nc(-c3ccco3)no2)cc1[N+](=O)[O-])c1ccccc1 (stereo not given) -14.9%
COc1ccc(C2c3cccn3CCN2S(=O)(=O)c2ccccc2[N+](=O)[O-])cc1OC (stereo not given) -27%
O=C(NCC(c1ccc2c(c1)OCO2)N1CCOCC1)c1ccccc1F (stereo not given) 24.3%
O=C(NCc1ccccc1)c1nnc(Cc2cccc(F)c2)o1 -4.16%
CCc1ccc2occ(CC(=O)Nc3c(C(=O)Nc4ccc(OC)cc4)oc4ccccc34)c2c1 -6.7%
Cc1cccn2cc(-c3cccc(NS(=O)(=O)c4ccc(Cl)c(Cl)c4)c3)nc12 -6.6%
CC(C)(C)c1ccc(C(O)CCCN2CCC(C(O)(c3ccccc3)c3ccccc3)CC2)cc1 (stereo not given) -2.13%
CC(CNC(=O)Cn1ccc2cc(S(=O)(=O)N3CCCCC3)ccc21)c1ccccc1 (stereo not given) -31.3%
COc1ccc(N2CC(NC(=O)C3CC3)CC2=O)cc1 (stereo not given) -9.45%
CC(=O)c1cccc(NC(=O)[C@H](Cc2ccccc2)N2Cc3ccccc3C2=O)c1 -4.5%
CCC(NC(=O)Nc1ccc(OC)c(OC)c1)c1c(-n2cccc2)sc2c1CCN(C)C2 (stereo not given) -7.81%
COc1ccccc1C(=O)NCCSc1c(C)[nH]c2ccccc12 -43.8%
COc1cccc(NC(=O)CSc2nc(=O)n(Cc3ccccn3)c3c2CCC3)c1 -16.8%
O=c1oc2ccc3ccccc3c2cc1-c1nnc(Nc2ccc(Cl)cc2Cl)s1 3.08%
COc1ccc(CCNC(=O)c2ccc3c(c2)N=C(C)c2cc(C)ccc2S3)cc1OC -36%
CCc1ccc(NC(=O)Cn2c(=O)c(CNc3ccccc3)cc3cc(OC)c(OC)cc32)cc1 -12.3%
Cc1cccc(NC(=O)C2CCCN(S(=O)(=O)c3c(C)[nH]c(=O)[nH]c3=O)C2)c1C (stereo not given) -18.4%
COc1ccc(-c2nc3ccccc3o2)cc1NC(=O)C(C)(C)Oc1ccc(Br)cc1 -15%
CCOc1ccc(-n2cc(-c3ccccc3)c3c(NC4CCCCC4)ncnc32)cc1 -12.3%
Cc1nn(-c2ccccc2)c(OC(=O)c2ccccc2Cl)c1S(=O)(=O)c1ccccc1 -10.1%
COc1ccc2c(c1)c1c(c(=O)n(-c3cccc(Cl)c3)c(=O)n1CC(=O)NCC1CCCO1)n2C (stereo not given) -5.54%
CCOc1ccc(-c2nnc(SCC(=O)NCc3ccc(C)cc3)nc2-c2ccc(OCC)c(OC)c2)cc1OC -19.3%
CCOc1ccc(NC(=O)CSC2=Nc3ccccc3C3=NC(CCC(=O)NCc4cccs4)C(=O)N23)cc1 (stereo not given) 3.29%
COCCNC(=O)Cn1cnc2sc(C)c(S(=O)(=O)N3CCN(c4ccccc4OC)CC3)c2c1=O 9.84%
CCc1nn2c(=O)cc(COC(=O)c3ccccc3NC(=O)COc3ccc(F)cc3)nc2s1 11.9%
CCOC(=O)c1[nH]c(C)c(CCC(=O)Nc2cccc(C(F)(F)F)c2)c1C -14.2%
COc1cc(CNCCSc2nnnn2C)ccc1OCc1ccc(F)cc1 -4.09%
CC(CNC(=O)c1nnc(Cc2cccc(F)c2)o1)c1ccccc1 (stereo not given) -13.8%
CCOC(=O)c1sc(NC(=O)C(C)Oc2ccc(OC)cc2)c(C(=O)OCC)c1C (stereo not given) -4.04%
COc1ccc(C(=O)Nc2cc(-c3ccccc3)nn2-c2ccccc2)cc1 -5.7%
CCOC(=O)c1cccc(NC(=O)c2cc3cc4cc(OC)ccc4nc3s2)c1 -9.27%
Cc1ccc(NC(=O)COc2ccc(-c3nn(C)c(=O)c4ccccc34)cc2)cc1 -35.9%
COc1ccc(C)cc1NC(=O)CN1C(=O)COc2ccc(S(=O)(=O)N3CCOCC3)cc21 -3.43%
O=C(COCc1cc(-c2cccs2)on1)Nc1cc(Cl)ccc1O -9.2%
Cc1nc(-c2ccc(OCC(C)C)c(C#N)c2)sc1C(=O)O
CN(C)c1ccc(CNC(=O)C2CCCN(S(=O)(=O)c3ccc4c(ccn4C)c3)C2)cc1 (stereo not given) -30.8%
CCOc1ccccc1NC(=O)Cn1c(=O)oc2cc(S(=O)(=O)NCc3ccccc3)ccc21 -2.6%
COC(=O)C1=C(C)NC(=O)C1(NC(=O)c1ccc(Cl)cc1)C(F)(F)F (stereo not given) -0.0679%
CCN1CCC(N(Cc2cccc(OC)c2)C(=O)Nc2cccc(C)c2C)CC1 -14.3%
CC1=Nc2cc(C(=O)NCc3ccc(C)cc3)ccc2Sc2ccc(Cl)cc21 -28.7%
CCNC(=O)CCCC=CC[C@@H]1[C@H](C=CC(O)CCc2ccccc2)[C@@H](O)C[C@@H]1O (stereo not given in full) -6.66%
COc1ccc2cc([S+]([O-])Cc3ncc(C)c(OC)c3C)nc2c1 1.79%
COc1cccc(N2CCN(C(=O)CCS(=O)(=O)c3ccc4c(c3)CC(=O)N4C)CC2)c1 -2.32%
O=C(Cn1c(=O)oc2cc(S(=O)(=O)N3CCCC3)ccc21)NCc1ccc(Cl)cc1 -28.3%
Cc1ncc(CO)c2c1Oc1nc(-c3ccccc3)nc(SCC(=O)N3CCCCC3)c1C2 -1.73%
CCN(CC)C(=O)Cn1c(=O)n(Cc2ccc(C(=O)NCc3ccc(C)cc3)cc2)c(=O)c2ccccc21 -10.2%
CS(=O)(=O)N1CCc2cc(C(=O)Nc3ccc(Cl)c(C(F)(F)F)c3)ccc21 -45.9%
CCOCCCNC(=O)c1cc2c(=O)n(C)c3ccccc3c2n1C -19%
Cc1ccc(NC(=O)c2cn3c4c(ccc(Cl)c4c2=O)OC(C)C3)cc1C (stereo not given) 0.191%
COc1ccc(NC(=O)Cn2c(=O)n(-c3cccc(C)c3)c(=O)c3c2c2cc(C)ccc2n3C)cc1Cl -29.4%
CCOc1cc2sc(N3CCC(C(=O)Nc4ccccc4C(=O)OC)CC3)nc2cc1Br 15.1%
O=C(C1CCC(CNS(=O)(=O)c2ccc(Br)s2)CC1)N1CCN(c2ccccc2Cl)CC1 (stereo not given) -22.8%
CCOc1ccc(NC(=O)CN2C(=O)c3ccccc3Sc3ccc(C(=O)OC)cc32)cc1 -0.744%
Cc1ccc2c(c1)c(=O)c1ccccc1n2CCCC(=O)Nc1ccc(Cl)c(Cl)c1 -22.8%
Cc1cc(C)cc(-n2c(SCC(=O)NCc3ccc(F)cc3)nc3c([nH]c4ccccc43)c2=O)c1 -16.1%
COc1cc(NC(=O)CSc2nc(-c3ccccc3)no2)cc(OC)c1 -12.7%
COc1cccc(NC(=O)CN2C(=O)CC(c3ccco3)Sc3ccccc32)c1 (stereo not given) -28.9%
COC(=O)c1sc(-c2ccccc2)cc1NC(=O)c1cccc(Cl)c1 -7.97%
Cc1cccc(C)c1NC(=O)C(=O)NCC(c1cccnc1)N1CCc2ccccc21 (stereo not given) -28.1%
O=C(C1CCC(Cn2c(=O)c3sccc3n(Cc3ccccc3F)c2=O)CC1)N1CCOCC1 (stereo not given) -28.1%
CN(C)c1ccc(C(=C2C=CC(=[N+](C)C)C=C2)c2ccc(N(C)C)cc2)cc1
O=C(CSc1nc2c([nH]c3ccccc32)c(=O)n1-c1ccc(Cl)cc1)NC1CCCCC1 -45.6%
CCc1ccc(NC(=O)N2CCN(Cc3nc4ccc(C)cc4o3)CC2)cc1 -19.4%
CCCCNC(=O)Nc1ccc2c(c1)N(C)C(=O)c1ccccc1S2 -35.3%
CCN(CC)C(=O)CN1C(=O)COc2ccc(S(=O)(=O)N3CCOCC3)cc21 -3.7%
CC(=O)[C@H]1CC[C@H]2[C@@H]3CC=C4C[C@@H](O)CC[C@]4(C)[C@H]3CC[C@]12C
COc1ccc(CC2c3cc(OC)c(OC)cc3CC[N+]2(C)CCC(=O)OCCCCCOC(=O)CC[N+]2(C)CCc3cc(OC)c(OC)cc3C2Cc2ccc(OC)c(OC)c2)cc1OC (stereo not given) -8.26% [at 11.5 µM, percent change from vehicle, -100% = no light]
COc1ccc(NC(=O)Cn2nnc(C(=O)NCc3ccco3)c2N)c(OC)c1 -17.4%
Cc1cc(Nc2cccc(Br)c2)n2c(nc3ccccc32)c1C#N -21.3%
Cc1ccc(N2CCN(C(=O)c3cn(C)c4ccc(S(=O)(=O)N5CCCC5)cc4c3=O)CC2C)cc1 (stereo not given) -9.52%
CC(=O)Nc1ccc(S(=O)(=O)NCC2CCC(C(=O)NCc3ccccc3)CC2)cc1 (stereo not given) -14.6%
CCOc1cc(C(Nc2cc(C)ccn2)c2ccc3cccnc3c2O)ccc1OC (stereo not given) -39.1%
COc1ccc(N2CCN(S(=O)(=O)c3cc(Br)cc4c3N(C(=O)C3CC3)CC4)CC2)cc1 -22.5%
CC(C)(C)OC(=O)N1CCC(c2c(C(=O)N3CCN(c4ccccn4)CC3)cnn2-c2cccc(F)c2)CC1 0.782%
Cc1ccc(NC(=O)Cn2c(=O)n(Cc3ccco3)c(=O)c3sc4ccccc4c32)c(C)c1 -9.1%
COc1cc2c(=O)c(S(=O)(=O)c3ccc(C(C)C)cc3)cn(Cc3ccccc3C)c2cc1OC -28%
Cc1ccc(C(=O)NCC(c2ccco2)S(=O)(=O)c2ccccc2)cc1C (stereo not given) 2.29%
O=C(OCC(COC(=O)c1cccnc1)(COC(=O)c1cccnc1)COC(=O)c1cccnc1)c1cccnc1 -2.37%
CCOC(=O)c1c(C)c(-c2ccccc2)n(CC(=O)NCc2ccccc2)c1C -18.7%
CCOC(=O)c1ccc(NS(=O)(=O)c2ccc3c(c2)CCN3C(=O)CC)cc1 -29.9%
COc1ccc(OC)c(NC(=O)COCc2cc(-c3ccco3)on2)c1 -11.6%
O=C(CSc1nccn1Cc1ccccc1)Nc1nc2ccccc2s1 14.5%
